Assay results: article PMC4336329 (PLoS ONE, 2015)
Screen size: about 310,000 compounds; about 14,000 (4.5%) showed an effect of 50% or more. The effect is printed as a negative number. Some of the results follow.

Target: human ether-à-go-go-related gene (hERG) potassium channel (human, UniProt Q12809)
Assay: primary screen, population patch clamp on CHO cells stably expressing hERG
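Further: peak tail current of the secondary pulse compared with the same well before compound.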

Sequence of human ether-à-go-go-related gene (hERG) potassium channel (Q12809 whole entry, looked up): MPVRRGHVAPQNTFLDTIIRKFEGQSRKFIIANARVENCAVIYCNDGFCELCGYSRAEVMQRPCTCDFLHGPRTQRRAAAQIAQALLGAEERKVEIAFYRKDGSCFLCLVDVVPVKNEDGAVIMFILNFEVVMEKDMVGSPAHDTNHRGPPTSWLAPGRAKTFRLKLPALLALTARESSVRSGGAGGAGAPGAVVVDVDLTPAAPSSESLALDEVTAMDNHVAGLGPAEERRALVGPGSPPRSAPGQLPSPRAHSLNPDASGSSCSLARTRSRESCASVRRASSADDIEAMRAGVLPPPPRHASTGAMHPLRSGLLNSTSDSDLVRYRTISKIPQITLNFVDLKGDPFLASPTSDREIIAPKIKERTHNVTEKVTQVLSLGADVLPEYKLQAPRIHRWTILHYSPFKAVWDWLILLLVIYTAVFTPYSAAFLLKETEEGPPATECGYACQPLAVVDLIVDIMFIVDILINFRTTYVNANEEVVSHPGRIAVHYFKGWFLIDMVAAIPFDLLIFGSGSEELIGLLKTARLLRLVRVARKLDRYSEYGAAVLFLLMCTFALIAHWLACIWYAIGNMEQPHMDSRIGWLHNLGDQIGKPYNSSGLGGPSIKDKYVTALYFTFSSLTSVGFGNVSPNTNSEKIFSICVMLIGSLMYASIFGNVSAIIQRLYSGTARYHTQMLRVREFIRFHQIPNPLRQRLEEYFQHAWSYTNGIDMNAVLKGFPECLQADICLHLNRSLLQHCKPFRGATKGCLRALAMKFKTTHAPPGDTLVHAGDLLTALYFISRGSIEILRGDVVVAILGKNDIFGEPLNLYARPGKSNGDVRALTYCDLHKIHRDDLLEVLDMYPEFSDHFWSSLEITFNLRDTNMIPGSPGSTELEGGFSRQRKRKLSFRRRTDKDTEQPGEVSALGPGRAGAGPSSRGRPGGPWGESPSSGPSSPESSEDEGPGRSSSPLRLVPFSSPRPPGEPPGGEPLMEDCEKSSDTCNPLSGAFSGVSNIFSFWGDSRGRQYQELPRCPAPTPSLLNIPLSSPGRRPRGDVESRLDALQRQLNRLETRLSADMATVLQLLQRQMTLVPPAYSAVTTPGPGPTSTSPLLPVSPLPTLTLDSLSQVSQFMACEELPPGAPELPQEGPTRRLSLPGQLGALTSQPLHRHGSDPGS

**Q.** How did the “hERG current change (%, negative = inhibition) at 10uM” value turn out when COc1cc(NC(=O)c2ccccc2Cl)ccc1NC(=O)c1ccco1 was run?
**A.** The value was -8.94%.

**Q.** With O=S(=O)(c1ccc(-c2n[nH]c(=S)o2)cc1)N1CCCC1 as the compound, how does the “hERG current change (%, negative = inhibition) at 10uM” value read?
**A.** Its value is 42.4%.

**Q.** For CN=C(C)C1=C(O)C(C(=O)OC)C(C)(C)CC1=O (centres unmarked), which “hERG current change (%, negative = inhibition) at 10uM” value is on record?
**A.** The value was -6.03%.

**Q.** With CC(=O)N1CCN(S(=O)(=O)c2cccc(C(=O)Nc3cc(C(F)(F)F)ccc3N3CCOCC3)c2)CC1 as the compound, how does the “hERG current change (%, negative = inhibition) at 10uM” value read?
**A.** Its value is -42.3%.

**Q.** COc1ccc(C(CC(=O)N2CCOCC2)c2c(OC)cc(OC)c3ccc(=O)oc23)cc1 (centres unmarked) was tested. Which “hERG current change (%, negative = inhibition) at 10uM” value did it give?
**A.** The value was -3.96%.

**Q.** How did the “hERG current change (%, negative = inhibition) at 10uM” value turn out when COC(=O)CSc1ncc(C#N)c(N)n1 was run?
**A.** The value was -13%.

**Q.** Which “hERG current change (%, negative = inhibition) at 10uM” value does the source give for O=C(Nc1nc(-c2ccc(Oc3ccccc3)cc2)cs1)C1=COCCO1 here?
**A.** The value was -14.3%.

**Q.** How did the “hERG current change (%, negative = inhibition) at 10uM” value turn out when CCN(CC)c1cc(Cl)nc(N)n1 was run?
**A.** Its value is 15.3%.

**Q.** Which “hERG current change (%, negative = inhibition) at 10uM” value does the source give for Cc1ccc(Cn2c(C3CCCN3c3nc(-c4ccc(F)cc4)cs3)nc3cc(C(=O)NCCCO)ccc32)cc1 (centres unmarked) here?
**A.** The value was 2.29%.

**Q.** Cc1cccc(/N=C/c2nc(-c3ccccc3Br)oc2O)n1 was tested. Which “hERG current change (%, negative = inhibition) at 10uM” value did it give?
**A.** The value was 15.8%.

**Q.** CCN(CC)S(=O)(=O)c1ccc(NC(=O)COc2c(OC)cccc2OC)cc1 was tested. Which “hERG current change (%, negative = inhibition) at 10uM” value did it give?
**A.** Its value is 16.8%.

**Q.** With CCC1(CC)Nc2ccccc2C(=O)N1c1ccc(NC(C)=O)cc1 as the compound, how does the “hERG current change (%, negative = inhibition) at 10uM” value read?
**A.** Its value is 0.446%.

**Q.** CCOC(=O)N1CCN(C(=O)CS(=O)(=O)c2cn(Cc3cccc(F)c3)c3ccccc23)CC1 was tested. Which “hERG current change (%, negative = inhibition) at 10uM” value did it give?
**A.** Its value is 3.52%.

**Q.** C/C(CC(=O)Nc1ccc(N(C)C)cc1)=N\NC(=O)c1ccc(F)cc1 was tested. Which “hERG current change (%, negative = inhibition) at 10uM” value did it give?
**A.** Its value is 0.609%.

**Q.** How did the “hERG current change (%, negative = inhibition) at 10uM” value turn out when CCN(CC)c1ccc(C(=O)N/N=C(\C)c2ccc(OC)c(OC)c2)cc1 was run?
**A.** The value was 3.53%.

**Q.** How did the “hERG current change (%, negative = inhibition) at 10uM” value turn out when O=C(NCc1ccccn1)C(=O)NCC1OCCN1S(=O)(=O)c1ccc([N+](=O)[O-])cc1 (centres unmarked) was run?
**A.** Its value is -31.9%.

**Q.** With Cc1nc2c(=O)[nH]c(=S)n(C)c2nc1C as the compound, how does the “hERG current change (%, negative = inhibition) at 10uM” value read?
**A.** The value was 14.6%.

**Q.** Which “hERG current change (%, negative = inhibition) at 10uM” value does the source give for COc1ccc(/C=C/C(=O)Oc2cccc(/C=N/NC(=O)c3cccc(F)c3)c2)cc1 here?
**A.** Its value is -22.5%.

**Q.** CCOC(=O)C1(C)/C(=N/Nc2ccccc2Cl)C(=O)C(=O)N1c1ccccc1 (centres unmarked) was tested. Which “hERG current change (%, negative = inhibition) at 10uM” value did it give?
**A.** The value was 6.03%.

**Q.** CCN(CC)CCNc1c2c(c(C#N)c3nc4ccccc4n13)CCCC2 was tested. Which “hERG current change (%, negative = inhibition) at 10uM” value did it give?
**A.** The value was -45.3%.

**Q.** Which “hERG current change (%, negative = inhibition) at 10uM” value does the source give for COc1ccc(-c2[nH]ncc2CN(C)Cc2cc(C)[nH]n2)c(F)c1 here?
**A.** Its value is 12%.

**Q.** For CCC/C(C)=N\Nc1nc2c(c(=O)n(C)c(=O)n2C)n1C, which “hERG current change (%, negative = inhibition) at 10uM” value is on record?
**A.** Its value is 7.47%.

**Q.** Cc1cn(COC/C=C/c2ccccc2)c(=O)[nH]c1=O was tested. Which “hERG current change (%, negative = inhibition) at 10uM” value did it give?
**A.** Its value is 4.2%.

**Q.** How did the “hERG current change (%, negative = inhibition) at 10uM” value turn out when S=c1[nH]nc(-c2cccnc2)n1/N=C/c1ccccc1 was run?
**A.** The value was 11.7%.

**Q.** Which “hERG current change (%, negative = inhibition) at 10uM” value does the source give for COc1ccc(-n2c(SCC(=O)N3CCOCC3)nc(O)c(Cc3ccccc3)c2=O)cc1 here?
**A.** The value was 7.78%.

**Q.** Which “hERG current change (%, negative = inhibition) at 10uM” value does the source give for Cc1ccc(NC(=O)Nc2ccc3c(c2)nnn3C)cc1C here?
**A.** The value was 27.4%.

**Q.** Which “hERG current change (%, negative = inhibition) at 10uM” value does the source give for O=C(Nc1c(F)cc(F)cc1Br)c1cc(S(=O)(=O)N2CCN(c3ccccn3)CC2)ccc1F here?
**A.** The value was -15.9%.

**Q.** With O=C(CCN1N=C(c2ccccc2)CCC1=O)NCC1COc2ccccc2O1 (centres unmarked) as the compound, how does the “hERG current change (%, negative = inhibition) at 10uM” value read?
**A.** The value was -14%.

**Q.** Which “hERG current change (%, negative = inhibition) at 10uM” value does the source give for N#Cc1ccc(/C=N/NC(=O)c2ccccc2F)cc1 here?
**A.** The value was 6.52%.

**Q.** How did the “hERG current change (%, negative = inhibition) at 10uM” value turn out when Cc1nnn(-c2nonc2N)c1C(=O)N/N=C/c1ccccc1O was run?
**A.** The value was 9.64%.

**Q.** Which “hERG current change (%, negative = inhibition) at 10uM” value does the source give for CCC1CCCCN1C(=O)CSc1nc2c(c(=O)n1C)SC(C)C2 (centres unmarked) here?
**A.** The value was -22.8%.

**Q.** Which “hERG current change (%, negative = inhibition) at 10uM” value does the source give for O=C(Nc1ccc2c(c1)OCO2)N1CCCc2ccccc21 here?
**A.** Its value is 11.7%.

**Q.** CC(=O)NCC(=O)OCC(=O)N1c2ccccc2Sc2ccccc21 was tested. Which “hERG current change (%, negative = inhibition) at 10uM” value did it give?
**A.** Its value is 16.4%.

**Q.** For O=C(Nc1ccc(CN2CCOCC2)cc1)c1ccco1, which “hERG current change (%, negative = inhibition) at 10uM” value is on record?
**A.** The value was 5.32%.

**Q.** CC1=C(C(=O)OC(C)C)[C@@H](c2ccc(C)o2)NC(=O)N1 was tested. Which “hERG current change (%, negative = inhibition) at 10uM” value did it give?
**A.** Its value is 24.6%.

**Q.** CCOc1ccc(N(CC(=O)NC2CCCCC2)C(=O)CCC(=O)Nc2nccs2)cc1 was tested. Which “hERG current change (%, negative = inhibition) at 10uM” value did it give?
**A.** Its value is -11.4%.

**Q.** How did the “hERG current change (%, negative = inhibition) at 10uM” value turn out when COc1ccc(OC)c(S(=O)(=O)N(C)CC(=O)N2CCN(c3cccc(Cl)c3)CC2)c1 was run?
**A.** The value was -39.5%.

**Q.** Cc1cc(C(=O)NCC2COc3ccccc3O2)c2ccccc2n1 (centres unmarked) was tested. Which “hERG current change (%, negative = inhibition) at 10uM” value did it give?
**A.** Its value is 10.3%.

**Q.** With CCC(CC)C(=O)Nc1ccc(Cl)c(Cl)c1 as the compound, how does the “hERG current change (%, negative = inhibition) at 10uM” value read?
**A.** The value was -11.7%.

**Q.** Which “hERG current change (%, negative = inhibition) at 10uM” value does the source give for Cc1ccc(NC(NC(=O)c2cccs2)C(Cl)(Cl)Cl)cc1C (centres unmarked) here?
**A.** Its value is -4.07%.

**Q.** CC(O)CNc1nc2ccccc2n1CC(=O)NCC(F)(F)F (centres unmarked) was tested. Which “hERG current change (%, negative = inhibition) at 10uM” value did it give?
**A.** Its value is 13.9%.

**Q.** Which “hERG current change (%, negative = inhibition) at 10uM” value does the source give for CCOc1ccccc1NC(=O)COC(=O)C1CCC1 here?
**A.** Its value is -17%.

**Q.** COC(=O)c1[nH]c2c(c1C)C(=O)CC(c1cc(OC)c(OC)c(OC)c1)C2 (centres unmarked) was tested. Which “hERG current change (%, negative = inhibition) at 10uM” value did it give?
**A.** The value was -3.2%.

**Q.** How did the “hERG current change (%, negative = inhibition) at 10uM” value turn out when Nc1c(Cl)cnn(-c2ccccc2)c1=O was run?
**A.** The value was 3.05%.
